± gives the standard deviation of the averaged measurements. This is one part of the list.
test system: PfAP2-G AP2 domain (GST-tagged); assay: gcPBM binding intensity (ln(normalized median fluorescence intensity)); higher = stronger DNA binding
Method in brief: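 Using an Agilent 4 × 180k array, primer-extended double-stranded 36-bp intergenic genomic probes and negative controls were exposed for 1 h to GST-fused P. falciparum DNA-binding domains expressed in E. coli. Binding was carried out in 1× PBS with 1% milk, 0.2 mg/ml BSA, 0.5% salmon testes DNA and 0.03% Triton X-100, and protein was detected with Alexa488 anti-GST antibody and a 488 nm scan. Binding intensity is the highest Masliner-normalised natural-log median intensity across replicate spots of either probe orientation.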

Sequence	gcPBM binding intensity (ln)
TTATAAAAATATTACGCACACACAAACTTATTCATT [CACACA_site1970]	10.3 ± 0.17
ATATATTTATATTATACACACAAAAATATTTTGTAT [CACACA_site6262]	9.91 ± 0.099
TATATATATTAATTTATTTATTTGTTTATTTATTTA [CACACA_negctrl_site185]	9.47 ± 0.014
AATACACACCTGTGGGTGCTTATAATAAGCCACAAA	10.15 ± 0.099
TATTTTTTTATTTATTGTACTTTAAAAAAAATTAAA [XGTACX_site6167]	11.3 ± 0.99
TAACAAATATTATTTTGTACATAATATATATATATA [XGTACX_site6898]	10.6 ± 0.49
AGACTATCATTTTTTTAACACACAAAAAAAATAAAA [CACACA_site9173]	10.1 ± 0.4
ATCGCATATACATTATATTTTATAATAATTATTTTT [GTGCAC_negctrl_site48]	9.945 ± 0.021
ATATAATAATATTATACATGCAAAATATGTTCTTCA [TGCATGCA_site115]	9.795 ± 0.049
AAGAAGAGTTATTGTAGTACATTTTTAAATGTAATA [XGTACX_site7664]	11.4 ± 0.76
TAATTACCATATGGTACACACATATATATCTGTATA [CACACA_site5849]	11.1 ± 0.83
AAGAATTATAGAAACACACATACATACAGACATACA [CACACA_site1943]	10.1 ± 0.26
AAAGATAATAATATGCGTACATAAAAATATATGATA [XGTACX_site6884]	11.5 ± 0.92
ATAATGGAAAAAAAATATAATAATACGAAATAGGAA [TGCATGCA_negctrl_site64]	10.01 ± 0.049
TATTTGGGTATTTTTACACACATTAATATATATATA [CACACA_site9114]	10 ± 0.33
AGTTAAATGAATCAATACATAAATATGTATATATAT [TGCATGCA_negctrl_site539]	9.595 ± 0.078
TTTTTTTAATAAATTTATAACAATATGATAGGTGAC [CACACA_negctrl_site1783]	10.2 ± 0.34
TGAATCAATTGTTGCTGTACATAAGGTATACAATAA [XGTACX_site5127]	11 ± 0.59
ATTTGACACGTATATGCACACACCCGTAAGTGTCCA [CACACA_site8891]	10.5 ± 0.3
TATTAACTCAATAGCGCACACTTTTAATATTTTATA [CACACA_site4973]	10.14 ± 0.078
AAAAATAAAATAAAATAAAATAAAAATAAAGAAAAA [CACACA_negctrl_site808]	9.39 ± 0.16
ACAAATAAAAAAATTACACACATATATAATATATAT [CACACA_site1361]	9.71 ± 0.11

Sequence	gcPBM binding intensity (ln)
AGTAGTCTGGAGAAAAGTACACAGTATCTGGTAACA [XGTACX_site2034]	11.5 ± 1
TTAATTCTATACATAAATTATGTTTACATAAAGAAT [GTGCAC_negctrl_site246]	9.84 ± 0.099
TTTCTTTATTTATAATAATTTTTTATTAAAAATAGA [CACACA_negctrl_site1610]	9.55 ± 0.13
AGTGCATAATATTTATGTACGTATCACATATATTTT [XGTACX_site5166]	11.3 ± 0.84
AATAAATGTCTGTTAATGCACACGATATGTCTATAT [CACACA_site2351]	10.03 ± 0.099
TTATAAATTTTTAATAGTACATAAAATTAAAGGTAA [XGTACX_site760]	11.2 ± 0.67
ATGTGATAATTTAGGAGTACTGTCATAAGCATTTCT [XGTACX_site3091]	11.4 ± 0.95
GATATATTTTGTTATGTAGATGTTGGTAGGAATTTT [GTGCAC_negctrl_site485]	9.945 ± 0.049
GTATTTATATGATTAACACACATATGTGGATTAATA [CACACA_site1315]	9.99 ± 0.11
ATGTATCGTAACAAATGTACAAGAGGATGTTTAGAC [XGTACX_site3355]	11.1 ± 0.71
TATATAACTACAAGAACACACATATAAATATAAATA [CACACA_site7210]	9.955 ± 0.021
GTAATTAAGATATATACACACAAAGGCTATTAAATA [CACACA_site6604]	9.985 ± 0.021
TATTGATAAAAAATATGTACATATATACATATATAT [XGTACX_site3821]	11.1 ± 0.61
ATATATATATATATATGTACGTAAACAAAAATTTAT [XGTACX_site6780]	11.4 ± 0.91
ATATACATATTTTTGACACACATTAGGAAAATATAT [CACACA_site4123]	10.1 ± 0.15
ATGTAATAAATACTACGTACATATATATGTGTTAAT [XGTACX_site3265]	11.3 ± 0.73
ATATATAAATATAGCATACACACAAAAAAATAAAAT [CACACA_site2332]	10 ± 0.11
CAACAAAAGAAACACACACACACAAACACAAAAAAA [CACACA_site3389]	10.3 ± 0.28
TGTATACCTTAATATACACACATACATATATATATA [CACACA_site8370]	10.3 ± 0.5
GGATATATTATATGTACACACATATATAACGGATAT [CACACA_site1309]	11.5 ± 0.8
TATTATTTATATGATACACACGTACATATACACATA [CACACA_site9275]	11.3 ± 0.87
TTCATTAAAACGAATACACACATAAATATATAAAAG [CACACA_site4824]	10.19 ± 0.021

Source: the supplement of paper PMC11417369
